Laboratory results reported in PubChem BioAssay AID1645882 (National Center for Advancing Translational Sciences (NCATS), 2021).
In all, about 16,000 compounds went through this assay and about 120 (0.75%) were called active. Inconclusive results (about 4%) are left out. The call rests on the fitted dose curve; in most records, active means well fitted inhibition curve with a large enough effect; inconclusive means small, poorly fitted or top-dose-only effect; inactive means no such curve, though single readings can be large or run the other way. The list shows a part of the results.

What follows are molecules tested against Rap guanine nucleotide exchange factor 3 (Homo sapiens) (UniProt O95398) (assay: Validation qHTS for antagonist of cAMP-regulated guanine nucleotide exchange factor 3 (EPAC1)). Details: EPAC1 Rap1B-BODIPY-GDP exchange, fluorescence; series mostly up to 150 µM; activity change, negative = inhibition: at the top concentration.
Method in brief: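 EPAC1 (100 nM) mixed with 250 nM RAP1B-BODIPY-GDP and 50 uM GDP; compounds in concentration series, 5 min at room temperature. Fluorescence (ex 480/em 540 nm) read every 5 min for 30 min; normalized to ATA control and DMSO.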
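Further: plate controls were DMSO for no effect and ATA control for full effect; nearly all actives have a fitted effect of over 75% in size.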

UniProt O95398, sequence (O95398 whole entry, looked up): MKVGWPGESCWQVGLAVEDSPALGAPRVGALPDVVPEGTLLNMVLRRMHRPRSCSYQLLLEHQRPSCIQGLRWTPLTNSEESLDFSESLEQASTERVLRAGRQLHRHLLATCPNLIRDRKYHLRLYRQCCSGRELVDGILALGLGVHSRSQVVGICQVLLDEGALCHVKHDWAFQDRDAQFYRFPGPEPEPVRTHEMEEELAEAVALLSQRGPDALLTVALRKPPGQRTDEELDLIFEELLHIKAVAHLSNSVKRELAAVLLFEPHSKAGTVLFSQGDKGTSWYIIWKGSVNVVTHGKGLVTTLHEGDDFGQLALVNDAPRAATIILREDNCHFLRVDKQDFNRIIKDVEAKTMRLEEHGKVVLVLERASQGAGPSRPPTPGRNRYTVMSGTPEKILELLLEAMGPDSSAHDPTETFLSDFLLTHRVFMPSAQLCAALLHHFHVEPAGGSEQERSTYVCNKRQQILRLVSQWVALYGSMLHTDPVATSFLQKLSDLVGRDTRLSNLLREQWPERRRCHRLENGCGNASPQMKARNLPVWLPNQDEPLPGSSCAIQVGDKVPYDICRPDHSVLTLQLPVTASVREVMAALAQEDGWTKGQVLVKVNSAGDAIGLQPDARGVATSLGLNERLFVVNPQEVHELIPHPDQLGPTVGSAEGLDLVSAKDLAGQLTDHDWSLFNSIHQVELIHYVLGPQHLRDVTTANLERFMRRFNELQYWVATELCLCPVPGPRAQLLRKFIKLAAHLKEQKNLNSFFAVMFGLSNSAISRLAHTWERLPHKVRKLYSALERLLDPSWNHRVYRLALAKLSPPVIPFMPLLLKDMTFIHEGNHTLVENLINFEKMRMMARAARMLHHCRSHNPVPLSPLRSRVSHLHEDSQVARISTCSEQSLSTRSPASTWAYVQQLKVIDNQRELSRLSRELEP

Activity change, negative = inhibition, inactive:
COc1ccc(-c2cn(Cc3ccc4ccccc4c3)nn2)cc1 11%
Cc1ccsc1C(=O)N(Cc1cc2ccc(F)cc2nc1N1CCC(O)CC1)CC1CCCO1 (stereo unspecified) 18.1%
Cc1nc2cnc(Nc3ccccc3)nc2n(C2CC2)c1=O 9.17%
Cc1c(C(=O)N2CCOc3ccccc3C2)sc2ncnc(NCCCN3CCOCC3)c12 13.8%
CCC(C)C(=O)O[C@H]1C[C@@H](C)C=C2C=C[C@H](C)[C@H](CC[C@@H]3C[C@@H](O)CC(=O)O3)C21 (stereo partly specified) -10.6%
CC(=O)N1CCC[C@H]1C(=O)NCC1Cc2cc(C)cc(-c3ccc(Cl)cc3)c2O1 (stereo partly specified) 2.14%
COc1ncc2nc(CCc3ccccc3)c(=O)n(C)c2n1 5.17%
COc1cccc(-c2cc3c(c(OC)c2)OCCN(S(=O)(=O)c2ccccc2OC(F)(F)F)C3)n1 -13%
COC[C@H](c1ccc(C(F)(F)F)cc1)N1CCN(C2(C)CCN(C(=O)c3c(C)ncnc3C)CC2)C[C@H]1C 35.3%
O=S(=O)(c1ccccc1)N1CCC2(CCCN(c3cccc(-c4ccccc4)c3)C2)CC1 4.29%
C[N+]1(CC(=O)c2cccc([N+](=O)[O-])c2)CCOCC1 22.3%
CCOC(=O)c1ccc(-c2c(-c3cc(OC)c(OC)c(OC)c3)noc2C)cc1F -22%
CN1CCCC1CCOC(C)(c1ccccc1)c1ccc(Cl)cc1 (stereo unspecified) 21.5% [at 75.8 µM]
CNCCCCCCCCSc1nc(C(C)C)ccc1C(=O)c1cccs1 2%
OCc1cc2c(cn1)[nH]c1ccccc12 7.08%
CC(=O)N[C@@H](CC(C)C)C(=O)O -7.18%
Cc1nccn1CC1CCC2C(C1=O)c1ccccc1N2C (stereo unspecified) 23.6%
CC[C@]1(O)C[C@@H]2CN(CCc3c([nH]c4ccccc34)[C@](C(=O)OC)(c3cc4c(cc3OC)N(C)[C@H]3[C@](O)(C(=O)OC)[C@@H](C(=O)OC)[C@@]5(CC)C=CCN6CC[C@@]43[C@@H]65)C2)C1 2.39%
CO/N=C(/C(=O)N[C@H]1C(=O)N2C(C(=O)O)=C(COC(C)=O)CSC12)c1csc(N)n1 (stereo partly specified) -10.5%
Nc1nc(F)nc2c1ncn2[C@@H]1O[C@H](CO)[C@@H](O)[C@@H]1O
Cc1c(OCC(F)(F)F)ccnc1CS(=O)c1nc2ccccc2[nH]1 (stereo unspecified)
COc1ccc(/C=C/c2cc(O)cc(O[C@H]3OC(CO)C(O)C(O)C3O)c2)cc1 (stereo partly specified) 9.7%
O=C(Nc1ccccc1)N1CC2(CCN(C(=O)c3cnccn3)CC2)C1 22.9%
CC[C@H]1OC(=O)[C@H](C)[C@@H](O[C@H]2C[C@@](C)(OC)[C@@H](O)[C@H](C)O2)[C@H](C)[C@@H](O[C@@H]2O[C@H](C)C[C@H](N(C)C)[C@H]2O)[C@](C)(O)C[C@@H](C)/C(=N\OCOCCOC)[C@H](C)[C@@H](O)[C@]1(C)O 10.4% [at 75.8 µM]
Cc1oc(-c2ccccc2NC(=O)c2cccnc2)nc1CNC(=O)C1CCCCCN1C (stereo unspecified) 16.5%
O=C1NC(=O)[C@@]2(CCOc3ccc(F)cc32)N1 5.41%
C=C(Br)COC(c1ccco1)[C@H](Cc1ccccc1)NC(=O)OC(C)(C)C (stereo partly specified) -24.5%
COc1ccc(C(=O)NCC2Cc3cccc(-c4ccc(S(C)(=O)=O)cc4)c3O2)c(OC)n1 (stereo unspecified) 20.6%
O=c1[nH]cnc2n[nH]nc12 -19.4%
CNc1ccnc(-c2cccc(NS(C)(=O)=O)c2)n1 3.58%
CCCc1ccc(C(=O)O)cc1 -14.2%
C=C1C[C@H](OC(=O)C(C)(O)CCl)C2C(=C)C(=O)O[C@@H]2C2C1C[C@H](O)[C@]2(O)CCl (stereo partly specified) 23.3%
COc1ccc(CN2CCCC(n3cc(C(=O)N4CCCCC4)nn3)C2)c(OC)c1 (stereo unspecified) 6.36%
CSc1nc(N)c2ncn([C@@H]3O[C@H](COP(=O)(O)OP(=O)(O)OP(=O)(O)O)[C@@H](O)[C@H]3O)c2n1 -4.47% [at 75.8 µM]
C=CCN1CCc2cc(O)c(O)cc2[C@H](c2ccccc2)C1 4.56%
COc1c2ccoc2nc2c(OC)c(OCC(O)C(C)(C)O)ccc12 (stereo unspecified) 15.8%
COc1cccc(Cn2c(=O)c(CCc3ccccc3)nc3cnc(N4CCNCC4)nc32)c1 -0.227%
COc1ccc(CNc2ncncc2-c2ccc3c(c2)OCO3)c(OC)c1 -28.6%
CN1CCN(c2ncnc3ccc(-c4cccc(NS(C)(=O)=O)c4)cc23)CC1 5.83%
Cc1cc(C)n(-c2ccc(C(=O)N3CCc4c(cnc(C)c4CNC(=O)c4ccccc4F)C3)cc2)n1 14.7%
CCOC(=O)OC(C)OC(=O)[C@@H]1N2C(=O)[C@@H](NC(=O)[C@H](N)c3ccccc3)[C@H]2SC1(C)C (stereo partly specified) 19.9% [at 75.8 µM]
COc1ccc(C2OCC3(COC(C)=O)C(C)C=C(C)C2C3C)cc1 (stereo unspecified) -3.37%
COc1ccc(-n2c(=O)c(-c3cccc(F)c3)nc3cncnc32)cc1 -0.584%
COc1ccc(C(=O)N2CCC3(CCCN(Cc4ccccc4OC)C3)CC2)cc1 23.4%
Clc1ccccc1-c1nccc(NCc2ccccc2)n1 -4.61%
C=C1C(=O)OC2C[C@@]3(C)CCCC(C)C3=CC12 (stereo partly specified) -9.33%
CC(C)=CCN1CCC2(CCc3ccccc32)CC1 25.5%
COc1ccccc1-c1ccnc(-n2ncc(C(=O)NCCc3ccccn3)c2C)n1 -14.4%
FC(F)(F)c1ccccc1-c1ccc2ncnc(NCc3cccnc3)c2c1 -9.31%
COc1ccccc1CCn1c(=O)c(-c2cccs2)nc2cncnc21 6.28%
OB(O)O 2.99%
COCc1ccc(CN2CCOc3c(cc(-c4cc(C)c5cccc(OC)c5n4)cc3OC)C2)o1 13.2%
CCN(CC)CCC(=O)N1c2ccccc2Sc2ccc(C(F)(F)F)cc21 1.25%
COC(=O)N1CCC2(CCCN(Cc3cc(C(F)(F)F)cc(C(F)(F)F)c3)C2)CC1 13.6%
O=C(NCC1Cc2cccc(-c3cnccn3)c2O1)C1COc2ccccc2O1 (stereo unspecified) 11%
CNc1cc(-c2ccccc2CN(C)C)ncn1 8.99%
O=C1CCC(c2ccc(-n3ccnc3)cc2)=NN1
CS(=O)(=O)Nc1cc(C(=O)N2CCNC(=O)C2)c2c(c1)ncn2CCc1ccccc1 13%
COc1ccc(-c2nc3cnc(Nc4cccc(OC)c4)nc3n(C3CC3)c2=O)cc1 -13%
COc1ccccc1CCc1nc2ccccc2n1C1CCN(C(=O)c2cn3ccsc3n2)CC1 4.35%
CC(C)c1cnc(NC(=O)Cc2ccccc2)s1 3.36%
